Measurements as given in the CheMixHub viscosity set.

In the case of `CC(C)O`, the viscosity (293.15 K, 101 kPa) is reported as 2.439 ± 0.052 mPa·s [study A] and 2.47 ± 0.07 mPa·s [study B] and 2.437 ± 0.022 mPa·s [study C] and 2.444 ± 0.074 mPa·s [study D], the viscosity (293.15 K, 101.33 kPa) is reported as 2.543 ± 0.025 mPa·s [study A] and 2.397 ± 0.051 mPa·s [study B] and 2.396 ± 0.05 mPa·s [study C] and 1.7 ± 0.029 mPa·s [study D] and the viscosity (298.15 K, 101 kPa) is reported as 2.009 ± 0.026 mPa·s, 2.093 ± 0.064 mPa·s, 2.094 ± 0.019 mPa·s, 1.995 ± 0.015 mPa·s, 2.089 ± 0.033 mPa·s, 1.985 ± 0.089 mPa·s, 2.134 ± 0.045 mPa·s, 2.089 ± 0.037 mPa·s, 2.031 ± 0.027 mPa·s, 1.991 ± 0.053 mPa·s [several studies]. For the same compound, the viscosity (303.15 K, 101 kPa) was 1.845 ± 0.039 mPa·s [study A] and 1.734 ± 0.079 mPa·s [study B] and 1.547 ± 0.023 mPa·s [study C] and 1.654 ± 0.04 mPa·s [study D] and the viscosity (308.15 K, 101 kPa) was 1.603 ± 0.034 mPa·s [study A] and 1.482 ± 0.069 mPa·s [study B] and 1.178 ± 0.018 mPa·s [study C] and 1.494 ± 0.037 mPa·s [study D].

± gives the uncertainty stated by the source. Not every entry of the source has a single result; some have several. This is not the full list of results. The source may hold further records. Values given together are repeats (runs, samples, wells, individuals or studies). Marks in square brackets tell the records apart. The letters are not those of the source and start again with each entry.
